According to patent publication US20140271457A1 (AbbVie / Abbott, published 2014):
Changes are numbered by the printed parent chain. Values belong to the binder of their own block, whether it stands above or below them.

Molecular target: Recombinant Human IL-13 (human, UniProt P35225 part only, limits assumed)
Test: cell-based or functional assay

UniProt P35225, sequence (P35225 35-146 limits assumed): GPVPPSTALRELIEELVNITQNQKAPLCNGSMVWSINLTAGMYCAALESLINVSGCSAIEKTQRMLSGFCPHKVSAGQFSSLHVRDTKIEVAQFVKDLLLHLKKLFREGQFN

- IL-13 Neutralization Assay IC50: 0.897 nM
B1: DVD2783 (bispecific antibody, human IgG1, kappa)
heavy: EVQLVQSGAEVKKPGASVKVSCKASGYTFANYGIIWVRQAPGQGLEWMGWINTYTGKPTYAQKFQGRVTMTTDTSTSTAYMELSSLRSEDTAVYYCARKLFTTMDVTDNAMDYWGQGTTVTVSSGGGGSGGGGSEVTLRESGPGLVKPTQTLTLTCTLYGFSLSTSDMGVDWIRQPPGKGLEWLAHIWWDDVKRYNPALKSRLTISKDTSKNQVVLKLTSVDPVDTATYYCARTVSSGYIYYAMDYWGQGTLVTVSS[here human IgG1 constant region without letters]
light: DIQMTQSPSSLSASVGDRVTITCRASQDISQYLNWYQQKPGKAPKLLIYYTSRLQSGVPSRFSGSGSGTDFTLTISSLQPEDFATYFCQQGNTWPPTFGQGTKLEIKRGGSGGGGSGDIQMTQSPSSLSASVGDRVTISCRASQDIRNYLNWYQQKPGKAPKLLIFYTSKLHSGVPSRFSGSGSGTDYTLTISSLQPEDIATYYCQQGLTPPLTFGGGTKVEIKRTVAAPSVFIFPPSDEQLKSGTASVVCLLNNFYPREAKVQWKVDNALQSGNSQESVTEQDSKDSTYSLSSTLTLSKADYEKHKVYACEVTHQGLSSPVTKSFNRGEC

- IL-13 Neutralization Assay IC50: 0.278 nM
B2: DVD3008 (bispecific antibody, human IgG1, kappa)
heavy: B1 heavy with A30N, T102N, M104V, D105A
light: B1 light with S30E, Q31N, W94Q

- IL-13 Neutralization Assay IC50: 0.214 nM
B3: DVD2784 (bispecific antibody, human IgG1, kappa)
heavy: EVQLVQSGAEVKKPGASVKVSCKASGYTFANYGIIWVRQAPGQGLEWMGWINTYTGKPTYAQKFQGRVTMTTDTSTSTAYMELSSLRSEDTAVYYCARKLFTTMDVTDNAMDYWGQGTTVTVSSASTKGPEVTLRESGPGLVKPTQTLTLTCTLYGFSLSTSDMGVDWIRQPPGKGLEWLAHIWWDDVKRYNPALKSRLTISKDTSKNQVVLKLTSVDPVDTATYYCARTVSSGYIYYAMDYWGQGTLVTVSS[here human IgG1 constant region without letters]
light: DIQMTQSPSSLSASVGDRVTITCRASQDISQYLNWYQQKPGKAPKLLIYYTSRLQSGVPSRFSGSGSGTDFTLTISSLQPEDFATYFCQQGNTWPPTFGQGTKLEIKRTVAAPDIQMTQSPSSLSASVGDRVTISCRASQDIRNYLNWYQQKPGKAPKLLIFYTSKLHSGVPSRFSGSGSGTDYTLTISSLQPEDIATYYCQQGLTPPLTFGGGTKVEIKRTVAAPSVFIFPPSDEQLKSGTASVVCLLNNFYPREAKVQWKVDNALQSGNSQESVTEQDSKDSTYSLSSTLTLSKADYEKHKVYACEVTHQGLSSPVTKSFNRGEC

- IL-13 Neutralization Assay IC50: 0.054 nM
B4: DVD2787 (bispecific antibody, human IgG1, kappa)
heavy: EVQLVQSGAEVKKPGASVKVSCKASGYTFANYGIIWVRQAPGQGLEWMGWINTYTGKPTYAQKFQGRVTMTTDTSTSTAYMELSSLRSEDTAVYYCARKLFTTMDVTDNAMDYWGQGTTVTVSSASTKGPSVFPLAPEVTLRESGPGLVKPTQTLTLTCTLYGFSLSTSDMGVDWIRQPPGKGLEWLAHIWWDDVKRYNPALKSRLTISKDTSKNQVVLKLTSVDPVDTATYYCARTVSSGYIYYAMDYWGQGTLVTVSS[here human IgG1 constant region without letters]
light: B3 light

- IL-13 Neutralization Assay IC50: 0.189 nM
B5: DVD2786 (bispecific antibody, human IgG1, kappa)
heavy: B3 heavy
light: DIQMTQSPSSLSASVGDRVTITCRASQDISQYLNWYQQKPGKAPKLLIYYTSRLQSGVPSRFSGSGSGTDFTLTISSLQPEDFATYFCQQGNTWPPTFGQGTKLEIKRTVAAPSVFIFPPDIQMTQSPSSLSASVGDRVTISCRASQDIRNYLNWYQQKPGKAPKLLIFYTSKLHSGVPSRFSGSGSGTDYTLTISSLQPEDIATYYCQQGLTPPLTFGGGTKVEIKRTVAAPSVFIFPPSDEQLKSGTASVVCLLNNFYPREAKVQWKVDNALQSGNSQESVTEQDSKDSTYSLSSTLTLSKADYEKHKVYACEVTHQGLSSPVTKSFNRGEC

- IL-13 Neutralization Assay IC50: 1.38 nM
B6: DVD2684 (bispecific antibody, human IgG1, kappa)
heavy: EVQLVESGGGLVQPGGSLRLSCAASGFTFSNYGVTWVRQAPGKGLEWVSMIWADGSTHYASSVKGRFTISRDNSKNTLYLQMNSLRAEDTAVYYCAREWQHGPVAYWGQGTLVTVSSASTKGPEVTLRESGPGLVKPTQTLTLTCTLYGFSLSTSDMGVDWIRQPPGKGLEWLAHIWWDDVKRYNPALKSRLTISKDTSKNQVVLKLTSVDPVDTATYYCARTVSSGYIYYAMDYWGQGTLVTVSS[here human IgG1 constant region without letters]
light: DIQMTQSPSSLSASVGDRVTITCRASQLVSSAVAWYQQKPGKAPKLLIYWASARHTGVPSRFSGSGSGTDFTLTISSLQPEDFATYYCQQHYKTPFTFGQGTKLEIKRTVAAPDIQMTQSPSSLSASVGDRVTISCRASQDIRNYLNWYQQKPGKAPKLLIFYTSKLHSGVPSRFSGSGSGTDYTLTISSLQPEDIATYYCQQGLTPPLTFGGGTKVEIKRTVAAPSVFIFPPSDEQLKSGTASVVCLLNNFYPREAKVQWKVDNALQSGNSQESVTEQDSKDSTYSLSSTLTLSKADYEKHKVYACEVTHQGLSSPVTKSFNRGEC

- IL-13 Neutralization Assay IC50: 0.022 nM
B7: DVD2687 (bispecific antibody, human IgG1, kappa)
heavy: EVQLVESGGGLVQPGGSLRLSCAASGFTFSNYGVTWVRQAPGKGLEWVSMIWADGSTHYASSVKGRFTISRDNSKNTLYLQMNSLRAEDTAVYYCAREWQHGPVAYWGQGTLVTVSSASTKGPSVFPLAPEVTLRESGPGLVKPTQTLTLTCTLYGFSLSTSDMGVDWIRQPPGKGLEWLAHIWWDDVKRYNPALKSRLTISKDTSKNQVVLKLTSVDPVDTATYYCARTVSSGYIYYAMDYWGQGTLVTVSS[here human IgG1 constant region without letters]
light: B6 light

- IL-13 Neutralization Assay IC50: 0.094 nM
B8: DVD2686 (bispecific antibody, human IgG1, kappa)
heavy: B6 heavy
light: DIQMTQSPSSLSASVGDRVTITCRASQLVSSAVAWYQQKPGKAPKLLIYWASARHTGVPSRFSGSGSGTDFTLTISSLQPEDFATYYCQQHYKTPFTFGQGTKLEIKRTVAAPSVFIFPPDIQMTQSPSSLSASVGDRVTISCRASQDIRNYLNWYQQKPGKAPKLLIFYTSKLHSGVPSRFSGSGSGTDYTLTISSLQPEDIATYYCQQGLTPPLTFGGGTKVEIKRTVAAPSVFIFPPSDEQLKSGTASVVCLLNNFYPREAKVQWKVDNALQSGNSQESVTEQDSKDSTYSLSSTLTLSKADYEKHKVYACEVTHQGLSSPVTKSFNRGEC

- IL-13 Neutralization Assay IC50: 0.061 nM
B9: DVD2737 (bispecific antibody, human IgG1, kappa)
heavy: B7 heavy with T35E, M50G, S61D, S62T, G65S
light: B6 light with R24K, A53T, R54L, K93R

- IL-13 Neutralization Assay IC50: 0.955 nM
B10: DVD2734 (bispecific antibody, human IgG1, kappa)
heavy: B6 heavy with T35E, M50G, S61D, S62T, G65S
light: B6 light with R24K, A53T, R54L, K93R

- IL-13 Neutralization Assay IC50: 0.167 nM
B11: DVD2736 (bispecific antibody, human IgG1, kappa)
heavy: B6 heavy with T35E, M50G, S61D, S62T, G65S
light: B8 light with R24K, A53T, R54L, K93R

- IL-13 Neutralization Assay IC50: 0.133 nM
B12: DVD2683 (bispecific antibody, human IgG1, kappa)
heavy: EVQLVESGGGLVQPGGSLRLSCAASGFTFSNYGVTWVRQAPGKGLEWVSMIWADGSTHYASSVKGRFTISRDNSKNTLYLQMNSLRAEDTAVYYCAREWQHGPVAYWGQGTLVTVSSGGGGSGGGGSEVTLRESGPGLVKPTQTLTLTCTLYGFSLSTSDMGVDWIRQPPGKGLEWLAHIWWDDVKRYNPALKSRLTISKDTSKNQVVLKLTSVDPVDTATYYCARTVSSGYIYYAMDYWGQGTLVTVSS[here human IgG1 constant region without letters]
light: DIQMTQSPSSLSASVGDRVTITCRASQLVSSAVAWYQQKPGKAPKLLIYWASARHTGVPSRFSGSGSGTDFTLTISSLQPEDFATYYCQQHYKTPFTFGQGTKLEIKRGGSGGGGSGDIQMTQSPSSLSASVGDRVTISCRASQDIRNYLNWYQQKPGKAPKLLIFYTSKLHSGVPSRFSGSGSGTDYTLTISSLQPEDIATYYCQQGLTPPLTFGGGTKVEIKRTVAAPSVFIFPPSDEQLKSGTASVVCLLNNFYPREAKVQWKVDNALQSGNSQESVTEQDSKDSTYSLSSTLTLSKADYEKHKVYACEVTHQGLSSPVTKSFNRGEC

- IL-13 Neutralization Assay IC50: 0.119 nM
B13: DVD2733 (bispecific antibody, human IgG1, kappa)
heavy: B12 heavy with T35E, M50G, S61D, S62T, G65S
light: B12 light with R24K, A53T, R54L, K93R
